Measured values reported in PubChem BioAssay AID493005 (National Center for Advancing Translational Sciences (NCATS), 2010).
The whole screen tested about 340,000 compounds, of which fewer than 10 were called active. The inconclusive results got no clear call from the source; some entries with a clear call stand among them for comparison. Calls come from the whole dose curve; as a rule, active = well fitted inhibition curve with a large enough effect in the main read-out, with a control signal flat (not every such curve was filed as active); inconclusive = small, poorly fitted or top-dose-only effect, or effect the other way, or a change in a side signal; inactive = no such curve, though single readings can be large or run the other way. Where the call is inconclusive, the potency comes from a doubtful curve fit. A note “side channel” means that the fit belongs to a control or component signal, not to the main read-out.

Each compound was assayed against Tumor susceptibility gene 101 protein (Homo sapiens) (UniProt Q99816) (assay: qHTS Assay for Iinhibitors of HIV-1 Budding by Blocking the Interaction of PTAP/TSG101). Details: Fluorescence polarization, FITC-PTAP peptide / Tsg101 binding; series mostly up to 115 µM.
Summary of the method: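 Tsg101 binding domain (10 uM final) was mixed with compound and a FITC-labeled PTAP peptide (50 nM final) in HEPES pH 7.5 buffer with NaCl, Tween 20, EDTA and TCEP; fluorescence polarization was read after 20 min at r.t.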
Potency is the fitted concentration of half-maximal effect; tags give direction and shape of the fitted curve or compound fluorescence and quenching.

UniProt Q99816, sequence (Q99816 whole entry, looked up, the tested form may be a part): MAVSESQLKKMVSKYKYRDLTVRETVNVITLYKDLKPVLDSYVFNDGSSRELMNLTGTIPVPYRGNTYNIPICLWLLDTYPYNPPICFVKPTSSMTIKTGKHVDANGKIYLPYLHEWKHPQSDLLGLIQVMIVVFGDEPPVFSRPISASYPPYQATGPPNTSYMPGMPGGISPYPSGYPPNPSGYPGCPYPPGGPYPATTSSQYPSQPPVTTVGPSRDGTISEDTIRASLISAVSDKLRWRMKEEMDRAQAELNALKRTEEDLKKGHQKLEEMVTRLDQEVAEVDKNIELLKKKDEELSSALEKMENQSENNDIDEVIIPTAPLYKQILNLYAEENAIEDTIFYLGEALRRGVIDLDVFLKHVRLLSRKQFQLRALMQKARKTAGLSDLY

Row | SMILES | Potency
1 | COc1cccc(/C=N/NC(=O)c2cc3cc([N+](=O)[O-])ccc3s2)c1O | inconclusive: 56.2 µM [quencher, side channel, partial curve, poor fit]
2 | Nc1ccc2nc3c(=O)[nH]c(=S)[nH]c3nc2c1 | inconclusive: 56.2 µM [fluorescent, side channel, partial curve, poor fit]
3 | Cn1c(N)c(N=Nc2ccc(S(N)(=O)=O)cc2)c(=O)n(C)c1=O | inconclusive: 89.1 µM [fluorescent, side channel, single point]
4 | Nc1ccc2cc3[nH]c4cc(N)ccc4c3nc2c1 | inconclusive: 14.1 µM [fluorescent, side channel, partial curve, poor fit]
5 | CC[n+]1c(/C=C/c2c[nH]c3ccccc23)ccc2cc(C)ccc21 | inconclusive: 56.2 µM [fluorescent, side channel, partial curve, poor fit]
6 | CCN(CC)c1ccc(/C=C(/C#N)c2nc3ccccc3[nH]2)c(OC(C)C)c1 | inconclusive: 50.1 µM [fluorescent, side channel, partial curve, poor fit]
7 | COc1ccc(/C=N/Nc2ccc([N+](=O)[O-])cc2S(=O)(=O)N2CCN(C)CC2)cc1 | inconclusive: 35.5 µM [fluorescent, side channel, partial curve, poor fit]
8 | CCN(c1ccccc1)S(=O)(=O)c1ccc(Cl)c(NC(=O)CNC(C)c2ccccc2)c1 (stereo not drawn) | inactive
9 | O=C(Nc1ccccc1N1CCCCC1)c1ccc(-c2ccc(Cl)cc2)o1 | inactive
10 | CCN1/C(=C/C=C2/SC(=Nc3cccc4ncccc34)N(C)C2=O)Sc2ccccc21 | inconclusive: 20 µM [fluorescent, side channel, full curve, poor fit]
11 | CCOC(=O)C1CCN(S(=O)(=O)c2ccc3c(c2)CCCN3C(C)=O)CC1 | inactive
12 | CC1CN(c2nc3ccccc3nc2C(C#N)C(=O)NCc2ccc3c(c2)OCO3)CC(C)O1 (stereo not drawn) | inconclusive: 79.4 µM [fluorescent, single point]
13 | C[C@@H](NC(=O)[C@@H]1Cc2ccccc2CN1)C(=O)NC1CCCCC1 | inactive
14 | COCc1nc2ccccc2n1Cc1ccccc1 | inactive
15 | CCN(CC)Cc1c(O)ccc2c1O/C(=C\C=C\c1ccccc1)C2=O | inconclusive: 56.2 µM [fluorescent, side channel, partial curve, poor fit]
16 | CC(=O)Nc1ccc(NC(=O)C(C)OC(=O)/C(C#N)=C/c2ccc(N(C)C)cc2)cc1 (stereo not drawn) | inconclusive: 56.2 µM [fluorescent, side channel, partial curve, poor fit]
17 | N#Cc1cc2c(nc1SCC(=O)Nc1nccs1)CCCCC2 | inactive
18 | CC(C)c1ccc(NC(=O)N2CCOCC2)cc1 | inactive
19 | c1ccc(CNc2c(-c3cccc(SC4CCCCC4)c3)nc3ccccn23)cc1 | inactive

Row | SMILES | Potency
20 | O=C(Nc1nc(COc2ccccc2)cs1)c1ccccc1F | inactive
21 | O=[N+]([O-])c1ccc(/C=N/n2cnc3ccccc32)s1 | inconclusive: 50.1 µM [fluorescent, side channel, partial curve, poor fit]
22 | Cc1[nH]n(-c2ccccc2)c(=O)c1/C=N/Nc1nncc(-c2ccccc2)n1 | inactive
23 | CSc1ccccc1NC(=O)CN(C)C(=O)/C=C/c1ccccc1 | inactive
24 | Cc1ccc(C2C3CN(C(C)C)CC=C3C(C#N)=C(N)C2(C#N)C#N)cc1 (stereo not drawn) | inconclusive: 56.2 µM [fluorescent, side channel, partial curve, poor fit]
25 | COc1cc2nc(/C=C/c3ccc(N(C)C)cc3)sc2cc1SC | inconclusive: 44.7 µM [fluorescent, side channel, partial curve, poor fit]
26 | COC(=O)Cn1c(C)c(/C=C/c2cc[n+](C)cc2)c2ccccc21 | inconclusive: 79.4 µM [fluorescent, side channel, partial curve, poor fit]
27 | O=C1OC(c2ccco2)=N/C1=C\c1ccc(-c2cccc(C(F)(F)F)c2)o1 | inconclusive: 56.2 µM [fluorescent, side channel, partial curve, poor fit]
28 | O=C(Cc1ccc(F)cc1)NCCc1ccccc1 | inactive
29 | COc1ccccc1N=Nc1c(O)[nH]c2ccc(Br)cc12 | inconclusive: 79.4 µM [fluorescent, side channel, single point]
30 | O=C(N/N=C/C=C/c1ccccc1[N+](=O)[O-])c1ccncc1 | inactive
31 | CN(CC(=O)Nc1c(Cl)cccc1Cl)C(=O)CNC(=O)c1ccco1 | inconclusive: 89.1 µM [quencher, side channel, partial curve, poor fit]
32 | CN(C)/C=C1\SC(=S)N(c2ccc(Br)cc2)C1=O | inconclusive: 56.2 µM [fluorescent, side channel, partial curve, poor fit]
33 | Cc1ccc2nc(N(CCCN(C)C)C(=O)c3ccc4c(c3)CCCC4)sc2c1 | inactive
34 | COc1ccc(OC)c(-c2c3cc(O)c(=O)cc-3oc3cc(O)c(O)cc23)c1 | inconclusive: 28.2 µM [fluorescent, side channel, partial curve, poor fit]
35 | O=C1/C(=N\S(=O)(=O)c2cccs2)C([n+]2cccc(Cc3ccccc3)c2)=C([O-])c2ccccc21 | inconclusive: 56.2 µM [fluorescent, side channel, partial curve, poor fit]
36 | Cn1c(=O)c(NCCc2ccccc2)c2c3c(cccc31)C(=O)c1ccccc1-2 | inconclusive: 39.8 µM [fluorescent, side channel, partial curve, poor fit]
37 | Cc1cccc(NC(=O)c2nc[nH]c2C(=O)N[C@@H](Cc2ccccc2)C(=O)OC(C)(C)C)c1 | inconclusive: 31.6 µM [quencher, side channel, partial curve, poor fit]
38 | CC(=O)Nc1ccc(Nc2c3c4c(cccc4n(C)c2=O)C(=O)c2ccccc2-3)cc1 | inconclusive: 10 µM [fluorescent, side channel, full curve, poor fit]
